The list shows a part of the results. Peptide text beside a SMILES is read from it. * marks the point of attachment. Hydrocinnamoyl = O=C(CCc1ccccc1)*
What follows are molecules tested on T1, C. trachomatis L2/434/Bu expressing GFP (CTL2-GFP). Details: total inclusion area; 28.5 h, 10 µM; inhibitor.
T1 construct: L2/434/Bu GFP intracellular growth in HeLa cells
Parameters: species or system HeLa; C. trachomatis total inclusion area by high-content imaging, normalised to DMSO
Method in brief: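 Post-fluorescence-read fixation, DNA staining with Hoechst and high-content imaging; GFP inclusion area and number per well, and nuclei counts, used as proxies for bacterial growth and host viability.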
With CCNC(=O)NC[C@H]1C[C@@H]2CCN1C[C@@H]2c1cc(-c2ccccc2OC)nn1C [CBK289105] the “% of control remaining” value was 74.0189.
In the case of Cc1ccc(S(=O)(=O)Nc2ccnc(Cl)n2)cc1 [CBK067661], the “% of control remaining” value was 87.9721.
CCN(C(=O)Cn1cccc(OC)c1=O)C1CCOC(C)(C)C1 (centres unmarked) [CBK306879] was tested, and the “% of control remaining” value was 86.6293.
For CCN(CC)CCCNc1oc(-c2ccc(Cl)cc2)nc1C#N [CBK265746], the “% of control remaining” value was 111.411.
c1ccc2c3c([nH]c2c1)C1(CCN(CCC2CCCCC2)C1)OCC3 (centres unmarked) [CBK061789] was tested, and the “% of control remaining” value was 9.866.
With O=S(=O)(CC(F)(F)F)N(c1ccccc1)C1CCNCC1 [CBK165093T] the “% of control remaining” value was 86.0624.
With COc1ccc(C(=O)N(C)C2CCN(C)C2)cc1Nc1cncc(-c2cc3ccccc3[nH]2)n1 (centres unmarked) [CBK155260T] the “% of control remaining” value was 76.966.
In the case of Nc1ncc(-c2ccsc2)nc1NCC1CCOCC1 [CBK063848], the “% of control remaining” value was 97.1923.
In the case of O=C(Cn1ccc(=O)[nH]c1=O)NCC1(Sc2ccccc2)CC1 [CBK306242], the “% of control remaining” value was 66.3725.
For O=C(CCC(=O)c1ccc2c(c1)OCCO2)OCC(=O)c1ccc(Cl)c(Cl)c1 [CBK264825], the “% of control remaining” value was 118.374.
CCc1ccc(CN(C(=O)c2cc(OC)c(OC)c(OC)c2)C2CCS(=O)(=O)C2)cc1 (centres unmarked) [CBK293961] was tested, and the “% of control remaining” value was 104.067.
With COc1nc2ccn(CCN3C(=O)CCC3=O)c(=O)c2cc1C#N [CBK307422] the “% of control remaining” value was 96.7645.
With O=C(O)CNC(=O)CNC(=O)CCc1ccccc1 [CBK286874] (Hydrocinnamoyl-Gly-Gly-OH) the “% of control remaining” value was 103.668.
For Cc1cc(C2CCCCCN2C(=O)c2cccc(F)c2)on1 (centres unmarked) [CBK285448], the “% of control remaining” value was 75.3617.
For CS(=O)(=O)N1CC2(CCN(CCCCC3NC(=O)NC3=O)CC2)c2ccccc21 (centres unmarked) [CBK126684], the “% of control remaining” value was 90.7461.
In the case of CC(C)(C)c1ccc(OCC(=O)Nc2ccc(OCC(=O)O)cc2)cc1 [CBK287013], the “% of control remaining” value was 93.8848.
With Cc1nc2c(c(=O)[nH]1)CC[C@@H]1CN(C(=O)CCc3ccccc3)C[C@H]21 [CBK284414] the “% of control remaining” value was 77.5282.
In the case of O=C1CCCC[C@]2(CN(Cc3ccccc3)C[C@H]2c2ccccn2)N1 [CBK283340], the “% of control remaining” value was 107.725.
For CSCc1ccc(C(=O)Nc2cc(C(=O)O)ccc2C)cc1 [CBK297107], the “% of control remaining” value was 82.3698.
In the case of CCn1c(=O)oc2cc(NC(=O)NCCN3CCCCC3CO)ccc21 (centres unmarked) [CBK306565], the “% of control remaining” value was 66.0453.
In the case of CCc1nc2ccc(C(=O)N3CCCCC3)cn2c1N(C)C(=O)c1cccc(OC)c1 [CBK146392], the “% of control remaining” value was 91.3631.
With CC12CCC(C(=O)N(CC(O)Cn3c4ccc(Br)cc4c4cc(Br)ccc43)C1=O)C2(C)C (centres unmarked) [CBK262449] the “% of control remaining” value was 99.9913.
For COc1ccccc1-n1c(C)c(C(C)=O)c2cc(O)ccc21 [CBK115320], the “% of control remaining” value was 88.5244.
With O=C(NC[C@H]1CC[C@H](C(=O)O)CC1)c1cc2ccccc2[nH]1 [CBK287069] the “% of control remaining” value was 99.3201.
For CNC(=O)C1(Cc2ccccc2-c2cccs2)CCN(C(=O)COc2ccccc2)CC1 [CBK285684], the “% of control remaining” value was 123.778.
O=S(=O)(Nc1nnn[nH]1)c1ccccc1Br [CBK062386] was tested, and the “% of control remaining” value was 97.0182.
O=C(c1ccccc1F)[C@H]1CCCN(C(=O)c2cc(C3CC3)n[nH]2)C1 [CBK284330] was tested, and the “% of control remaining” value was 72.2694.
Cc1ccc(OCC(=O)N2CCN(S(=O)(=O)c3ccc4ccccc4c3)CC2)cc1 [CBK264200] was tested, and the “% of control remaining” value was 101.957.
c1ccc(CCN2CCN(Cc3ncc[nH]3)CC2)cc1 [CBK138328] was tested, and the “% of control remaining” value was 80.7793.
In the case of CCCc1ccc(S(=O)(=O)Nc2ccc(C(=O)O)cc2)cc1 [CBK034044], the “% of control remaining” value was 78.4561.
With O=C(CCC(=O)c1ccc2c(c1)OCCO2)OCC(=O)c1ccc(F)cc1 [CBK264679] the “% of control remaining” value was 105.427.
O=C(Nc1ncn(CC(=O)N2CCCCCC2)n1)c1ccsc1 [CBK304974] was tested, and the “% of control remaining” value was 134.041.
In the case of CN(C)C(=O)[C@H]1CC[C@]2(CC1)CNC(=O)c1ccccc1O2 [CBK284894], the “% of control remaining” value was 125.954.
With CC1CN(Cc2nc3c(c(=O)n(C)c(=O)n3C)n2CCCO)CC(C)O1 (centres unmarked) [CBK269298] the “% of control remaining” value was 101.529.
With c1csc(-c2nccnc2OC2CCCCC2)c1 [CBK107060] the “% of control remaining” value was 101.567.
For CCOc1ccc(-c2n[nH]c(C)c2-c2ccc(OC)c(OC)c2)c(O)c1 [CBK288106], the “% of control remaining” value was 37.8264.
For COc1cc(C)c(Nc2cc(-c3ccc(CC(C)C)cc3)ncn2)cc1OC [CBK090785], the “% of control remaining” value was 127.032.
For CCC(CN1CCOCC1)NC(=O)Cc1coc2c(C)c(C)ccc12 (centres unmarked) [CBK282813], the “% of control remaining” value was 87.2665.
In the case of CCOC(=O)C1(C2CCCCC2)CCN(C(=O)Cc2ccc(Cl)c(Cl)c2)CC1 [CBK136922], the “% of control remaining” value was 98.4748.
With N#Cc1cc(Nc2ccc(Cc3ccncc3)cc2)c([N+](=O)[O-])cc1C#N [CBK264090] the “% of control remaining” value was 115.125.
In the case of CCCc1nnc(NC(=O)CN2CCc3c(c(CO)nn3C)C2)s1 [CBK307172], the “% of control remaining” value was 46.8358.
Cc1cc(OCCCNCCO)ccc1Cl [CBK262230] was tested, and the “% of control remaining” value was 135.848.
For CCn1cc(-c2cncn2CCOc2ccc(Cl)cc2)cn1 [CBK281776], the “% of control remaining” value was 108.566.
With CC(=O)Nc1ccc(OCC(O)Cn2cnc3cc(C)c(C)cc32)cc1 (centres unmarked) [CBK304545] the “% of control remaining” value was 68.4949.
With COc1ccc(C(NC(=O)c2ccc(Cn3nc(C)cc3C)o2)c2ccccc2)cc1 (centres unmarked) [CBK285578] the “% of control remaining” value was 95.6369.
With CN(Cc1nc(-c2ccncc2)no1)S(=O)(=O)c1ccc(Br)cc1 [CBK268598] the “% of control remaining” value was 82.3135.
With COc1ccc(CNc2cncc(-c3cncc(OC)c3)n2)cc1 [CBK065388] the “% of control remaining” value was 123.839.
Cc1nn(C)c(C)c1CN(C)C(=O)CCC(C)N1CCCC1 (centres unmarked) [CBK282001] was tested, and the “% of control remaining” value was 88.2603.
For CC(=O)NC(CC(=O)N1CCc2sccc2C1c1ccccc1)c1ccc(F)cc1 (centres unmarked) [CBK285548], the “% of control remaining” value was 93.2008.
Cc1c(-c2ccc(N(C)C)nc2)c(C(F)(F)F)nn1C [CBK307320] was tested, and the “% of control remaining” value was 100.109.

Reference: publication PMC12040169 (PLOS Biology, 2025)
